According to patent US12528793B2 (priority 2019, dated 2026):
“And” between values parts separate entries of the source, which are not always exact repeats. Identical values can stand only once. Like-named read-outs stand apart in the source and are kept apart here.

Experiments:
[1] = target: F-ATP synthase (Mycolicibacterium smegmatis, UniProt A0R1Z9+A0R200+A0R201+A0R202); test: biochemical
[2] = test system: F-ATP synthase; conditions: M. smegmatis IMVs; for ATP synthesis inhibition in combination with BDQ (Formula (VII)): FIG. 5; for ATP synthesis inhibition in combination with racemate of Formula (VI) (BDQ1): FIG. 4
[3] = target: F-ATP synthase; format: biochemical; conditions: read-out: IC50 of ATP synthesis inhibition in M. bovis BCG IMVs, FIG. 2C
[4] = IC50 for ATP synthesis inhibition (M. smeg., μM), M. smegmatis IMVs

CCNc1cc(C)nc(Nc2ccc3[nH]c(-c4ccccc4)nc3c2)n1
IC50 [1, 4]: 0.28 µM

CCNc1cc(C)nc(Nc2ccc3nc(-c4ccc(Cl)cc4)[nH]c3c2)n1 [Formula (II), N^2-(2-(4-Chlorophenyl)-1H-benzo[d]imidazol-5-yl)-N^4-ethyl-6-methylpyrimidine-2,4-diamine]
ATP synthesis inhibition in combination with BDQ (Formula (VII)) ([2]; (II) added concentration dependently to 300 nM BDQ): almost full inhibition | ATP synthesis inhibition in combination with racemate of Formula (VI) (BDQ1) ([2]; (II) added concentration dependently to 300 nM racemate of (VI)): almost full inhibition | ATP synthesis inhibition in combination with BDQ (Formula (VII)) ([2]; addition of 3×IC50 (270 nM) of (II) to BDQ): completely inhibited | ATP synthesis inhibition in combination with racemate of Formula (VI) (BDQ1) ([2]; addition of 3×IC50 (270 nM) of (II) to racemate of (VI)): completely inhibited | IC50 ([1]; IC50 of ATP synthesis inhibition in M. smegmatis IMVs, FIG. 2B): 0.09 µM and ~0.09 µM | IC50 [3]: 8.7 nM

COc1cc(C(O)(CCN(C)C)C(c2cc3cc(Br)ccc3nc2OC)c2ccnc(OC)c2OC)cc(OC)n1 (racemic) [Formula (V), reference compound]
potency of racemate of Formula (V) in ATP synthesis inhibition in presence of (II) ([2]; with 300 nM of compound of Formula (II) versus racemate alone, FIG. 3): increases the potency

CCNc1cc(C)nc(Nc2ccc3nc(-c4cccc(Cl)c4)[nH]c3c2)n1 [Formula (III), N^2-(2-(3-Chlorophenyl)-1H-benzo[d]imidazol-5-yl)-N^4-ethyl-6-methylpyrimidine-2,4-diamine]
IC50 [1, 4]: 0.29 µM
